From PubChem BioAssay AID1508642 (National Center for Advancing Translational Sciences (NCATS), 2021)
Out of some 43,000 compounds screened, about 200 (0.47%) were called active. Not shown: some 12% with an inconclusive outcome. The call rests on the fitted dose curve; in most records, active means well fitted cell-killing curve with a large enough effect; inconclusive means small, poorly fitted or top-dose-only effect, or effect the other way; inactive means flat fitted curve, though single readings scatter. This is one part of the list.

Assay: Cell viability qHTS assay in S16 Pmp22-F2sN cells; further: nearly all actives have a fitted effect of over 65% in size
Settings: S16 Pmp22-F2sN Schwann cells (luciferase reporters placed in the Pmp22 gene) viability, CellTiter-Glo, 24 h; series mostly up to 57.5 µM; activity change, negative = cytotoxicity: at the top concentration
In short: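 Seed 500-1,000 S16 Pmp22-F2sN cells per well in phenol-red-free DMEM with 10% heat-inactivated FBS; pin-add 23 nL compound; incubate 24 h at 37C; add CellTiter-Glo, wait 15 min protected from light; read luminescence.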
On the % scale 0 is the no-effect control and ±100 the full control effect.

Structure (SMILES)	activity change, negative = cytotoxicity
O=S(=O)(c1ccccc1)c1nnn2c1nc(NCc1ccccc1)c1sccc12	inactive: 23.3%
Cc1cccc2sc(N(CCCN(C)C)C(=O)COc3ccccc3)nc12	inactive: 4.58%
COC(=O)c1ccccc1NC(=O)Cn1c(=O)n(-c2cccc(C(F)(F)F)c2)c(=O)c2c(C)c(C)sc21	inactive: 0.489%
CCOc1ccc(N(CC)S(=O)(=O)N2CCCC(C(=O)NCCc3ccc(OC)cc3)C2)cc1 (configuration not stated)	inactive: 0.208%
Cc1ccc(S(=O)(=O)NCC2CCC(C(=O)NCCc3ccc(Cl)cc3)CC2)cc1 (configuration not stated)	inactive: 11.6%
Cc1ccc(C)c(N2CCN(C(=O)c3cc(S(=O)(=O)N4CCCCCC4)cn3C)CC2)c1	inactive: 3.85%
COCCCNC(=O)c1ccc(Cn2c(SCc3cccc(C)c3)nc3cccnc32)cc1	inactive: -22.4%
Cc1cc(C)c2c(n1)sc1c(=O)n(-c3cc(Cl)ccc3C)nnc12	inactive: 4.49%
CCOC(=O)C1CCCN(C(=O)c2nn(-c3ccc(C)cc3)c(=O)c3c2c2ccccc2n3C)C1 (configuration not stated)	inactive: -0.955%
CCCn1c(CCCNC(=O)c2ccccc2OC)nc2ccccc21	inactive: -6.73%
O=C(/C=C\c1ccccc1)NC1CC(=O)N(c2ccccc2)C1 (configuration not stated)	inactive: 6.28%
COc1ccc(CCNS(=O)(=O)c2ccc3c(c2)c(=O)n(C)c(=O)n3C)cc1OC	inactive: -6%
COc1ccc(OC)c(NC(=O)Cn2nc3c(cc2=O)CCCC3)c1	inactive: -1.09%
NS(=O)(=O)c1ccc(NC(=O)c2cc(-c3cccs3)nc3ccccc23)cc1	inactive: 4.31%
Cc1ccc(NC(=O)CCCc2nnc3n(C)c(=O)c4sccc4n23)cc1C	inactive: -4.83%
COc1ccc(NC(=O)C2=C(C)Nc3nc(SCc4ccc(C)cc4C)nn3C2c2cccc(OC)c2OC)cc1 (configuration not stated)	inactive: 15.5%
Cc1oc2ncnc(N3CCCCC3)c2c1C(=O)NCC1CCN(Cc2ccccc2F)CC1	inactive: -1.71%
Cc1ccc(CNC(=O)c2oc3ccc(S(=O)(=O)N4CCCC(C)C4)cc3c2C)cc1 (configuration not stated)	inactive: -7.58%
COc1ccccc1NC(=O)c1sc2nc(-c3cc4cc(Cl)ccc4oc3=O)[nH]c(=O)c2c1C	inactive: -3.38%
Cc1[nH]c(=O)[nH]c(=O)c1S(=O)(=O)Nc1cccc(Cl)c1C	inactive: -5.6%
CCOc1ccc(CNC(=O)Cn2nc(C)c3nn(-c4ccc(Cl)cc4)c(C)c3c2=O)cc1	inactive: -1.24%
COc1cc(NC(=O)Cn2c(=O)n(Cc3ccccc3)c(=O)c3oc4ccccc4c32)cc(OC)c1	inactive: -21.5%
CCOC(=O)c1c(S(=O)(=O)N2CCC(C(=O)Nc3ccc(C)cn3)CC2)c(C)n(C)c1C	inactive: 1.83%
CCn1c(SC)nc2c([nH]c3ccccc32)c1=O	inactive: -0.969%
COc1ccc(CNC(=O)c2ccc3c(c2)N=C(C)c2c(C)ccc(C)c2S3)cc1	inactive: 14.5%

Structure (SMILES)	activity change, negative = cytotoxicity
Cc1cc(C)cc(NC(=O)CC(C)n2nc(C)cc2C)c1 (configuration not stated)	inactive: 1.78%
O=C(Cn1ccc2cc(S(=O)(=O)N3CCCC3)ccc21)NCc1ccc(Cl)cc1	inactive: 2.52%
CCN(CC)c1ccc(NC(=O)CN2CCN(S(=O)(=O)c3ccc(C(C)C)cc3)CC2)cc1	inactive: -26.4%
O=C(Nc1ccc(F)cc1)C1CCN(c2nc3ccccc3nc2C(F)(F)F)CC1	inactive: 12%
COc1ccc(-c2noc(CC(=O)N(C)c3ccccc3F)n2)cc1	inactive: 2.02%
CCOc1ccccc1CNc1ncnc2onc(-c3ccc(F)cc3)c12	inactive: -7.29%
CCCNC(=O)CN1C(=O)COc2ccc(S(=O)(=O)N3CCCC3)cc21	inactive: 0.0327%
Cc1nc(N2CCOCC2)c2c(C(=O)N3CCN(c4cc(Cl)ccc4C)CC3)c(C)oc2n1	inactive: 1.18%
O=C(CN1C(=O)C2CCCCN2c2ccc(C(=O)N3CCCC3)cc21)NCc1ccc(F)cc1 (configuration not stated)	inactive: 0.642%
COC(=O)c1ccc(C2CC(=O)Nc3c2c(C)nn3-c2nc(C)cc(C)n2)cc1 (configuration not stated)	inactive: 8.66%
O=C(Nc1ccc(S(=O)(=O)Nc2ncccn2)cc1)c1cccc(Cl)c1	inactive: 2.67%
COc1ccc(-n2cc(C(=O)NCCc3ccc(C)cc3)c3ccccc3c2=O)cc1	inactive: -1.94%
CC1CCCCN1C(=O)CSc1nc2ccccc2nc1Cc1ccccc1 (configuration not stated)	inactive: -11.5%
COc1ccc(-c2cc3c(=O)n(CC(=O)Nc4ccccc4C(F)(F)F)ccn3n2)cc1OC	inactive: -0.159%
COc1ccc(C(c2c(C)n(C)n(-c3ccccc3)c2=O)c2c(C)n(C)n(-c3ccccc3)c2=O)cc1O	inactive: -11.7%
Cc1ccc(N2CC(NC(=O)Cc3cccs3)CC2=O)cc1 (configuration not stated)	inactive: 9.12%
CCOc1cccc2sc(N(Cc3cccnc3)C(=O)c3ccco3)nc12	inactive: 4.95%
Cc1c(C(=O)Nc2ccc(Br)cc2F)oc2ccc(S(=O)(=O)N3CCCCC3)cc12	inactive: 9.5%
CC1(C(=O)Nc2cccc(C(F)(F)F)c2)Cc2ccccc2C(=O)O1 (configuration not stated)	inactive: -21%
CC(=O)c1ccc(NC(=O)CN(C)S(=O)(=O)c2cc3c(cc2C)NC(=O)CO3)cc1	inactive: 2.59%
CC1CCN(CC(=O)N2CCCc3c2c(=O)oc2ccc(OCc4ccccc4)cc32)CC1	inactive: -9.79%
CC(C)CCN1C(=O)N(c2ccccc2)C(=O)C1CC(=O)Nc1ccc(Cl)cc1 (configuration not stated)	inactive: 0.556%
CC(C)NC(=O)CSc1nc2ccccc2nc1N1CCCCC1	inactive: 11.2%
Cc1ccc(Sc2ccc(N3CCCC(C(=O)Nc4ccc(Cl)cc4)C3)nn2)cc1 (configuration not stated)	inactive: -19.6%
CC1=C(C(=O)Nc2cccc(C)c2C)C2(CCCCC2)OC1=O	inactive: -2.24%

Structure (SMILES)	activity change, negative = cytotoxicity
COc1ccc(CCNC(=O)c2cnc3sc(N4CCCCCC4)nn3c2=O)cc1OC	inactive: -0.0917%
COc1ccc(OC)c(CNS(=O)(=O)c2c(C(=O)N3CCC(C)CC3)c(C)n(C)c2C)c1	inactive: 7.59%
Cc1cc(C)cc(NC(=O)Cn2nnc(C(=O)NCCc3ccccc3)c2N)c1	inactive: 9.39%
O=C(Nc1cccc(C(F)(F)F)c1)C1CCCN(S(=O)(=O)c2cccc3nsnc23)C1 (configuration not stated)	inactive: -7.82%
Cc1ccc2c(CC(=O)N3CCN(c4cccc(Cl)c4)CC3)coc2c1	inactive: -24.1%
CCCCNc1ccc(-c2nc(-c3ccccc3)no2)cc1[N+](=O)[O-]	inactive: 0.476%
CSc1ncc(Cl)c(C(=O)NCc2ccc(C)cc2)n1	inactive: 3.84%
COc1cc(Nc2nc(SCc3ccccc3F)nc3ccccc23)cc(OC)c1	inactive: -26.9%
CCOc1ccccc1NC(=O)CSc1c(C)cnc2c1c(=O)n(C)c(=O)n2C	inactive: -1.05%
Cc1ccc(CCNC(=O)c2ccc(CS(=O)(=O)c3ccc(Br)cc3)o2)cc1	inactive: 13.5%
Cc1cccc(NC(c2cccc(F)c2)c2ccc3ccc(C)nc3c2O)n1 (configuration not stated)	inactive: -13.1%
c1ccc(-c2cc(-c3ccccc3)c3c(n2)-c2ccccc2OC3)cc1	inactive: 23.6%
Cc1nc2ccc(S(=O)(=O)NC(C(=O)NCc3ccccc3Cl)C(C)C)cc2s1 (configuration not stated)	inactive: -0.371%
CC1CCN(S(=O)(=O)c2ccc3c(c2)N(CC(=O)NCc2ccccc2Cl)C(=O)CS3)CC1	inactive: -5.91%
NC(=O)CSc1nc2ccc(NC(=O)COc3ccccc3)cc2s1	inactive: 7.24%
CC1CCC(NC(=O)c2ccc3c(c2)N(Cc2ccccc2F)C(=O)c2ccccc2S3)CC1 (configuration not stated)	inactive: 11.7%
CCCn1c(=N)c(C(=O)NC2CCCC2)cc2c(=O)n3cc(C)ccc3nc21	inactive: 10.7%
O=C(CC(c1cccs1)N1Cc2ccccc2C1=O)Nc1ccccc1F (configuration not stated)	inactive: -0.756%
Cc1ccc(-c2nn(CCC(=O)Nc3ccc(Cl)c(Cl)c3)c(=O)c3ccccc23)cc1	inactive: 7.56%
COc1ccc(-c2nc(S(=O)(=O)c3ccc(Cl)cc3)c(N3CCCCCC3)o2)cc1	inactive: -3.76%
Cc1ccc(C(=O)NCCSc2c(C)[nH]c3ccccc23)cc1C	inactive: -2.29%
CCOc1cc(C2C(C(N)=O)=C(C)Nc3ncnn32)cc(Br)c1O (configuration not stated)	inactive: 5.61%
Cc1ccc(NC(=O)CN2C(=O)CSc3ccc(S(=O)(=O)N(C)C)cc32)cc1C	inactive: -29.8%
COC(=O)c1cc2occc2n1Cc1ccc(F)cc1Cl	inactive: 0.139%
Cc1ccc(CSC2=Nc3ccccc3C3=NC(CCC(=O)NCCc4ccccc4)C(=O)N23)cc1 (configuration not stated)	inactive: -3.9%

Structure (SMILES)	activity change, negative = cytotoxicity
Nc1nc2nc(-c3ccc(Cl)cc3)cc(C(F)(F)F)n2n1	inactive: 9.22%
CC(=O)N1c2ccccc2C(=O)C1N1CCN(c2cccc(C)c2C)CC1 (configuration not stated)	inactive: -0.236%
Cc1ccc(NC(=O)CSc2nc3c(c(=O)[nH]2)CN(Cc2ccccc2)CC3)cc1Cl	inactive: 1.43%
Nc1nonc1-c1nc2ccccc2n1Cc1ccc(Br)cc1	inactive: 6.24%
CC1(C)CC(=O)c2cc(C(=O)Nc3ccc(Cl)cc3)c(=O)[nH]c2C1	inactive: 8.44%
Cc1ccc(NC(=O)C2=CC(c3cccs3)=NS(=O)(=O)N2C)cc1	inactive: -4.4%
CC(C)(Oc1ccc(Cl)cc1)C(=O)Nc1cccc(-c2cn3cccnc3n2)c1	inactive: -0.303%
CCOC(=O)c1[nH]c(C)c(CCC(=O)NCc2cccc(Cl)c2)c1C	inactive: -15.7%
COc1cc(-c2cc3n(C)c(C)c(CCC(=O)Nc4ccc(F)cc4)c(=O)n3n2)cc(OC)c1OC	inactive: 22.8%
COC(=O)c1ccc([C@@H]2Nc3c(cccc3C(F)(F)F)[C@@H]3C=CC[C@@H]32)cc1	inactive: 1.98%
Cc1ccccc1CN1C(=O)c2ccccc2Sc2ccc(C(=O)N3CCOCC3)cc21	inactive: -10.7%
COc1ccccc1-c1c(C(F)(F)F)oc2c(CN3CCCCC3C)c(O)ccc2c1=O (configuration not stated)	inactive: 17.6%
CCN1C(=O)c2ccccc2S(=O)c2ccc(C(=O)N3CCN(c4ccc(F)cc4)CC3)cc21 (configuration not stated)	inactive: 23.6%
Cc1cccc(-c2nc(-c3ccc4c(c3)[nH]c(=O)n4C)no2)c1	inactive: -1.38%
CC(=O)c1[nH]c(C)c(C(=O)NCc2ccc(Cl)cc2)c1C	inactive: -27.8%
O=C(Nc1ccc2oc(-c3cccc4c(Br)cccc34)nc2c1)c1ccc(Br)cc1	inactive: -3.72%
Cc1cc(F)ccc1NC(=O)CCS(=O)(=O)c1cccc2nsnc12	inactive: -0.23%
Cc1ccc(S(=O)(=O)N2CCC(C(=O)Nc3cc(C)ccc3C)CC2)cc1	inactive: -0.103%
Cc1cccc(NC(=O)CSc2nc3c(oc4ccccc43)c(=O)n2-c2ccccc2)c1C	inactive: -14.9%
CCN(C(=O)c1cc2c(=O)oc3ccccc3c2s1)c1cccc(C(F)(F)F)c1	inactive: 7.16%
CCOc1ccc(OCC)c(Nc2nc3ccccc3n3nnnc23)c1	inactive: -0.103%
COc1ccc(-c2nc3ccccc3o2)cc1NC(=O)c1ccc(-c2ccc(C)c(Cl)c2)o1	inactive: 7.34%
